# According to PubChem BioAssay AID624296 (National Center for Advancing Translational Sciences (NCATS), 2012):
# Screen size: about 350,000 compounds; about 9,900 (2.8%) were called active. The inconclusive results got no clear call from the source; some entries with a clear call stand among them for comparison. Calls come from the whole dose curve; as a rule, active = well fitted activation curve with a large enough effect; inconclusive = small, poorly fitted or top-dose-only effect; inactive = no such curve, though single readings can be large or run the other way. No potency is given beside an inconclusive call; the fits are too rough.
# Assay: A quantitative high throughput screen for small molecules that induce DNA re-replication in MCF 10a normal breast cells. For activity, positive = re-replication: % of control where 0% means no effect. Note: nearly all actives have a fitted effect of over 50% in size.
# Conditions: MCF 10A DNA re-replication, Hoechst nuclear intensity, 48 h; activity, positive = re-replication: at 46.1 µM (top of the series)
# Potency is the fitted concentration of half-maximal effect; tags give direction and shape of the fitted curve.
Structure (SMILES),Potency,"activity, positive = re-replication"
COC1=C(Nc2ccc(C)cc2)C(=O)c2ccccc2C1=O,"inconclusive [activator, partial curve, poor fit]",
Cn1nc(Cc2n[nH]c(=S)n2C)c2ccccc2c1=O,"inconclusive [activator, partial curve, poor fit]",
O=C(C[n+]1cc(-c2ccc(F)cc2)n2c1CCC2)Nc1nc(-c2ccc(F)cc2)cs1,"inconclusive [activator, partial curve]",
O=C1c2ccccc2C(=O)N1CC(O)COCc1ccccc1 (stereo not given),"inconclusive [activator, single point]",
COc1ccccc1NC(=O)CN1C(=O)COc2ccc(C)cc21,"inconclusive [activator, single point]",
CN1CCC(N(C)C(=O)COc2ccccc2-c2ccccc2)CC1,"inconclusive [activator, partial curve, poor fit]",
O=C(CN1C(=O)c2cccc3cccc1c23)Nc1ccccc1C(=O)NCc1ccco1,active: 20.6 µM,
CCOC(=O)c1c(CSc2ccsc2)n(C)c2cc(Br)c(O)c(CN(C)C)c12,"inconclusive [activator, partial curve, poor fit]",
COC(=O)C1=C(C)NC2=C(C(=O)c3ccccc32)C1c1cccc(OC)c1 (stereo not given),"inconclusive [activator, partial curve, poor fit]",
COc1ccc(CC(=O)Nc2cccc(-c3nnc(-c4ccccc4)o3)c2)cc1OC,active: 20.6 µM,
O=C(Nc1ccc(O)cc1)c1cc2n(n1)C(C(F)(F)F)CC(c1ccco1)N2 (stereo not given),"inconclusive [activator, single point]",
C#CCOCCOCCOCCNc1nc(N2CCN(C(=O)CCCCCCCCCCNC(=O)[C@H](CO)n3cc(CCCSC)nn3)CC2)nc(N2CCN(C(=O)CCCCCCCCCCNC(=O)[C@H](CCCCN)n3cc(CCO)nn3)CC2)n1,"inconclusive [activator, single point]",
CN(C)c1nc(N(C)C)n(Cc2c(Cl)cccc2Cl)n1,"inconclusive [activator, single point]",
CCOC(=O)Cc1csc(-n2sc3ccccc3c2=O)n1,"inconclusive [activator, partial curve, poor fit]",
Cc1ccc2nc(SC(C(=O)c3ccccc3)c3ccccc3)nc(C)c2c1 (stereo not given),,inactive: 11.4%
C[C@@]12CCC[C@H](O1)[C@@H]([C@H](O)c1ccccc1)O2,"inconclusive [activator, full curve, poor fit]",
COC(=O)[C@H](C)N(Cc1ccc(Cl)c(Cl)c1)S(=O)(=O)CCN1CCN(c2ccccc2)CC1,"inconclusive [activator, partial curve, poor fit]",
CCCc1c(O)nc(SC2CC(=O)N(c3ccc(C)c(Cl)c3)C2=O)[nH]c1=O (stereo not given),,inactive: -0.827%
C[C@H]1CN([C@@H](C)CO)C(=O)c2cccc(NC(=O)C3CC3)c2O[C@H]1CN(C)Cc1ccncc1,,inactive: -0.711%
CN(C)S(=O)(=O)c1ccc(C(=O)N2CCN=C2SCc2cccnc2)cc1,"inconclusive [activator, single point]",

Structure (SMILES),Potency,"activity, positive = re-replication"
c1cncc(-c2nc(NCC3CCCO3)c3ccccc3n2)c1 (stereo not given),,inactive: 16%
COc1ccc(OCc2nc(C#N)c(NCCCn3ccnc3)o2)cc1,,inactive: -4.97%
CC(=O)N/N=C/c1ccc([N+](=O)[O-])o1,"inconclusive [activator, partial curve]",
Cc1ccc(S(=O)(=O)c2c(N)n(CCC(C)C)c3nc4ccccc4nc23)cc1,"inconclusive [activator, single point]",
CC1CCN(C(=O)C2CCN(S(=O)(=O)c3ccc4c(c3)CC(C)N4C(=O)C3CC3)CC2)CC1 (stereo not given),,inactive: -11.1%
CC1CC(N(C(=O)c2ccccc2Cl)c2ccccc2)c2ccccc2N1 (stereo not given),"inconclusive [activator, single point]",
CC(C)n1cnnc1SCC(=O)NNC(=O)COc1ccc(Cl)cc1,,inactive: -1.06%
Cc1cc(C(=O)NN)c(C)o1,"inconclusive [activator, single point]",
Cn1c(=O)[nH]c(=O)c2c1nc(N1CCN(C(c3ccccc3)c3ccccc3)CC1)n2CCO,"inconclusive [activator, single point]",
COc1ccc(C(=O)Nc2ccc(C(=O)NCC3CCCO3)cc2)c(OC)c1OC (stereo not given),"inconclusive [activator, single point]",
CCC(C)Sc1ccc([C@H]2N[C@@](Cc3ccccc3)(C(=O)OC)[C@H]3C(=O)N(C)C(=O)[C@@H]23)cc1 (stereo not given in full),,inactive: 5.36%
Cc1ccc(/C=N/Nc2nc3ccccc3s2)o1,"inconclusive [activator, single point]",
COc1ccc(-c2coc3c(C)c4oc(=O)c(CCC(=O)O)c(C)c4cc23)cc1,"inconclusive [activator, single point]",
CCCCSc1nc2ccc(Nc3nc(N4CCOCC4)nc(N4CCOCC4)n3)cc2s1,"inconclusive [activator, partial curve, poor fit]",
O=C(CSC1=NNC(c2ccccn2)S1)Nc1ccc(C(F)(F)F)cc1 (stereo not given),"inconclusive [activator, full curve]",
CC/C(=N/NC(=O)CNc1ccc(Cl)cc1C)c1ccccc1,"inconclusive [activator, single point]",
C=C1CSc2nc(=O)c3c4c(sc3n21)CCCC4,"inconclusive [activator, partial curve, poor fit]",
COc1cc(C=O)ccc1Oc1nc(Nc2ccc(F)cc2F)nc(N2CCOCC2)n1,"inconclusive [activator, partial curve, poor fit]",
Cc1ccc(-c2csc(Nc3ccccn3)n2)cc1,"inconclusive [activator, single point]",
Cc1cccc(N2CCN(C(=O)c3ccc(Cl)c(S(=O)(=O)N4CCc5ccccc5C4)c3)CC2)c1C,,inactive: 3.99%
